Patent US20060063236A1
One block for each binder: values may come before it.

Columns and labels:
[1] = molecular target: IL-4 receptor alpha chain (IL-4Rα) (human) (UniProt P24394); test: cell-based or functional assay
[2] = molecular target: T1, IL-9 receptor alpha chain (IL-9Rα) (human) (UniProt Q01113); test: cell-based or functional assay
T1 sequence (looked up): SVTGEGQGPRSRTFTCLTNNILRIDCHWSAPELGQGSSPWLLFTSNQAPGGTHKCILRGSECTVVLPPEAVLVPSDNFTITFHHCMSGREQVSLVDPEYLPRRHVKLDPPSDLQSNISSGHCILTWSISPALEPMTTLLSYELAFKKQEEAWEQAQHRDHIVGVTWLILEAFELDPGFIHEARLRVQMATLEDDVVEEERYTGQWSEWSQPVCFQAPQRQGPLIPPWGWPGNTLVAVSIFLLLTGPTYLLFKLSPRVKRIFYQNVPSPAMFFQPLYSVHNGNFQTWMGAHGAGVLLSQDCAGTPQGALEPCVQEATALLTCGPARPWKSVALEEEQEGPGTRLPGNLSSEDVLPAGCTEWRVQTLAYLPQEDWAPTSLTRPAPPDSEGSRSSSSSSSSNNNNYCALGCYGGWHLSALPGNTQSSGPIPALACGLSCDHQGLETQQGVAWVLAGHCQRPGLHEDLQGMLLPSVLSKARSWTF

Chain of UniProt P24394 (P24394 26-825): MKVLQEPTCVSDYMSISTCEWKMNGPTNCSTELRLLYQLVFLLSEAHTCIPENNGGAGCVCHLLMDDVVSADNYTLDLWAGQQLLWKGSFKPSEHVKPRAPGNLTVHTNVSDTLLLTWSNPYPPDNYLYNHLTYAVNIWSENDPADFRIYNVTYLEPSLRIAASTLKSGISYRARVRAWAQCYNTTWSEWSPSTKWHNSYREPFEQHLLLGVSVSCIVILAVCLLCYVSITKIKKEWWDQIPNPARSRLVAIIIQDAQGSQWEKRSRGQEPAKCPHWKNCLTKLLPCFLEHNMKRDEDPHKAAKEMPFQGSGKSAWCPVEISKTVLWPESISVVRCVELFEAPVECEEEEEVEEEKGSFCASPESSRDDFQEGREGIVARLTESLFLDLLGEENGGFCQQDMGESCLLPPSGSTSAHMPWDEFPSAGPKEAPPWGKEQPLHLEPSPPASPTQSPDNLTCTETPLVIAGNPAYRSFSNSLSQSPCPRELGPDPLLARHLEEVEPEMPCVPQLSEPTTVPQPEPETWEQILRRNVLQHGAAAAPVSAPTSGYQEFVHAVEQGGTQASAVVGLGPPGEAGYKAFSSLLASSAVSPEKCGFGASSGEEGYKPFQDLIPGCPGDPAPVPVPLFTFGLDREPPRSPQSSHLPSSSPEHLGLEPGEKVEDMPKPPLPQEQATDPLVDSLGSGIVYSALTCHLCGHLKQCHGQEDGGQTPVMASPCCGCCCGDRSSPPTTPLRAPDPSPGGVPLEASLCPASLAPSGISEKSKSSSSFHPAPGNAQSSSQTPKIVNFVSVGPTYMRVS

IC50, inhibition of IL-4 (0.5 ng/ml) induced Mo7e cell proliferation (AlamarBlue) [1]: 10.1 nM
IC50, inhibition of IL-4 (10 ng/ml) induced primary B-cell proliferation (tritiated thymidine incorporation) [1]: 10.6 nM
IC50, inhibition of IL-4 (10 ng/ml) induced primary PHA T-cell blast proliferation (tritiated thymidine incorporation) [1]: 34 nM
IC50, inhibition of IL-13 (5 ng/ml) induced TF-1 cell proliferation (AlamarBlue) [1]: 20.1 nM
IC50, inhibition of IL-9 (0.25 ng/ml) induced Mo7e cell proliferation (AlamarBlue) [2]: 83.6 nM
B1: His6TEV-IL-9RA/IL-4RA chimeric polypeptide (SEQ ID NO:4) (ligand)
chain: QGHHHHHHDYDIPTTENLYF[about 120 residues not given here]HKCDITLQEIIKTLNSLTEQKTLCTELTVTDIFAASKNTTEKETFCRAATVLRQFYSHHEKDTRCLGATAQQFHRHKQLIRFLKRLDRNLWGLAGLNSCPVKEANQSTLENFLERLKTIMDEKDSKCSS

IC50, inhibition of IL-4 (0.5 ng/ml) induced Mo7e cell proliferation (AlamarBlue) [1]: 15.2 nM
IC50, inhibition of IL-4 (0.5 ng/ml) induced TF-1 cell proliferation (AlamarBlue) [1]: 20.7 nM
IC50, inhibition of IL-4 (10 ng/ml) induced primary B-cell proliferation (tritiated thymidine incorporation) [1]: 16.3 nM
IC50, inhibition of IL-4 (10 ng/ml) induced primary PHA T-cell blast proliferation (tritiated thymidine incorporation) [1]: 104 nM
IC50, inhibition of IL-13 (5 ng/ml) induced TF-1 cell proliferation (AlamarBlue) [1]: 56.2 nM
IC50, inhibition of IL-9 (0.25 ng/ml) induced Mo7e cell proliferation (AlamarBlue) [2]: 571 nM
B2: His6TEV-IL-4RA/IL-9RA chimeric polypeptide (SEQ ID NO:2) (ligand)
chain: QGHHHHHHDYDIPTTENLYFQGHKCDITLQEIIKTLNSLTEQKTLCTELTVTDIFAASKNTTEKETFCRAATVLRQFYSHHEKDTRCLGATAQQFHRHKQLIRFLKRLDRNLWGLAGLNSCPVKEANQSTLENFLERLKTIMDEKDSKCSS[about 120 residues not given here]
